The text below walks through data of PubChem BioAssay AID1347073 (National Center for Advancing Translational Sciences (NCATS), 2019).

The whole screen tested about 45,000 compounds, of which about 200 (0.44%) were called active. Inconclusive results (about 7%) are left out. Calls follow the shape of the dose curve; as a rule, active = well fitted activation curve with a large enough effect; inconclusive = small, poorly fitted or top-dose-only effect; inactive = no such curve, though single readings can be large or run the other way. This is one part of the list.

The assay in a line: qHTS of TDP-43 Inhibitors: NCGC Sytravon Library Screen. Also: 0% is about no effect; nearly all actives have a fitted effect of over 55% in size. The note with it: yeast TDP-43 toxicity rescue, BacTiter-Glo growth, 24 h; series mostly up to 46.1 µM; growth rescue (activation): at the top concentration. The method in brief:
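TDP-43-expressing yeast, pregrown in raffinose, seeded at OD600 0.02 in galactose medium with compound for 24 hr at 30 deg C. Growth read by BacTiter-Glo luminescence, so rescue of toxicity appears as activation.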
As to `Oc1ccccc1/C=N/Nc1ccccc1`, the “growth rescue (activation)” value was inactive: 8.72%.
For the molecule `CCOC(=O)C1(Cc2ccccc2)CCN(Cc2ccc(C3CCCCO3)s2)CC1` (centres undefined), the “growth rescue (activation)” value is inactive: -28.6%.
The figure for `S=C(NCCN1CCOCC1)Nc1ccc(Cl)cc1` is inactive: 10.1%.
As for `CC(=O)N1CCC(N(CCN2CCOCC2)C(=S)Nc2ccc(C)c(C)c2)CC1`, the “growth rescue (activation)” value was inactive: -3.59%.
The figure for `CN1CCN(NC(=O)c2ccc(Br)c(S(=O)(=O)N3CCOCC3)c2)CC1` is inactive: 6.96%; for `CSc1nc(C)c(CCO)c(=O)[nH]1` it is inactive: -5.11%.
Take `CCC(C)(C)NC(=O)c1cc(S(=O)(=O)N2CCCCC2)ccc1N1CCOCC1`: the “growth rescue (activation)” value was inactive: -4.4%.
The figure for `CC(C)C(=O)NNC(=O)CSc1nc(C2CCCCC2)nc2ccccc12` is inactive: 4.33%; for `O=C(NC1CCN(C(=O)Nc2cccc(Cl)c2)CC1)c1ccco1` it is inactive: 12.7%; for `CNC(=O)CSc1nnc(-c2cccnc2)n1-c1ccc(C)cc1` it is inactive: -13.7%.
With `COc1ccc(OC)c(CN2CCC(C(=O)N3CCN(c4ccccc4F)CC3)CC2)c1` the figure was inactive: -11.8%; with `COCCCNCC(=O)Nc1ccc(OC(F)(F)F)cc1`, inactive: 22.1%; with `CCN(CC)CCn1c(=N)n(CC(O)COc2ccccc2)c2ccccc21` (centres undefined), inactive: 11.8%.
With `CON1C(=O)C(=O)N(OC)C2CCCCCC21` (centres undefined) the figure was inactive: -10.9%; with `O=C(NCCC1=CCCCC1)c1ccc([N+](=O)[O-])cc1`, inactive: 4.82%; with `O=c1oc2ccccc2c(O)c1Cc1cc(Cl)c2cccnc2c1O`, inactive: -1.04%.
For `CN(C)S(=O)(=O)c1cccc(NC(=O)CN2C(=O)NC3(CCc4ccccc4C3)C2=O)c1` (centres undefined), the “growth rescue (activation)” value was inactive: -1.53%.
With `CC1CCCC/C1=N\NC(=S)Nc1cccnc1` (centres undefined) the figure was inactive: 0.902%; with `C(=N\Nc1nc(N2CCCC2)nc(N2CCCC2)n1)/c1cccnc1`, inactive: 15.7%; with `CN(C(=O)c1ccc(OC2CCN(CCc3ccccc3)CC2)cc1)C1CCCCC1`, inactive: 0.0716%.
The figure for `O=C(COC(=O)C1CCN(S(=O)(=O)c2cccs2)CC1)Nc1ccc(F)cc1Cl` is inactive: 44.3%; for `Cc1cc(C(=O)N/N=C/c2c3ccccc3cc3ccccc23)n[nH]1` it is inactive: -19.7%.
With `Cc1ccc(/C=C/C(=O)Nc2cc(=O)n(C)c(=O)n2C)o1` the figure was inactive: -6.69%; with `Cc1cc(C)c(NC(=O)CSCc2c(C)noc2C)c(Cl)c1`, inactive: 4.56%.
Take `COc1cc(CC(=O)OCc2ccccc2F)cc(OC)c1OC`: the “growth rescue (activation)” value is inactive: 22.6%.
With `CCC(O)(CC)C(=O)NN(C(=O)Nc1csc2c1CCCC2)c1ccccc1` the figure was inactive: 9.09%.
With `O=C1/C(=C\c2ccc(O)cc2)SC(=S)N1Cc1ccccc1` the figure was inactive: -94.1%.
Consider `COc1cccc(NC(=O)CN2CCN(CC(=O)Nc3ccc(F)cc3)CC2)c1`, for which the “growth rescue (activation)” value is inactive: 8.35%.
With `O=[N+]([O-])c1ccc(N2CCSCC2)cc1` the figure was inactive: 16.2%; with `Cc1nnc(SCC(=O)NC(=O)NCCC(C)C)s1`, inactive: -5.72%; with `O=C(Nc1cccc2ccccc12)N(CCO)C1CCS(=O)(=O)C1` (centres undefined), inactive: -27.2%.
The figure for `O=[N+]([O-])c1cccc(-c2n[nH]c(=S)n2Cc2ccccc2)c1` is inactive: 11.3%; for `Cc1ccnc(NC(=O)c2cnc(Cl)c(Cl)c2)c1` it is inactive: 21.7%; for `CC1CCN(C(=O)CS(=O)(=O)Cc2ccccc2)CC1` it is inactive: -4.71%.
The figure for `Cc1ccc(N(CC(=O)NC2CCCC2)C(=O)c2nsc(Cl)c2Cl)cc1` is inactive: 9.62%.
As to `CCC(C)(C)NC(=O)C(c1ccc(F)cc1)N(CCOC)C(=O)CCC(=O)Nc1nccs1` (centres undefined), the “growth rescue (activation)” value was inactive: 5.79%.
With `CCc1ccc(NC(=O)CSc2nnnn2-c2cccnc2)cc1` the figure was inactive: 13.6%.
The figure for `COC(=O)c1cc(CNC(=O)C(C)NS(=O)(=O)c2ccc(C)c(C)c2)ccc1OC` (centres undefined) is inactive: 2.17%; for `CN(C)CC(=O)Nc1ccc(Oc2ccc(Cl)cc2)cc1` it is inactive: -2.26%; for `CN(C)c1ccc(/C=N/n2cnn(Cc3ccccc3Cl)c2=S)cc1` it is inactive: 5.71%.
With `Cc1ccc(C(c2cc(Cl)c3cccnc3c2O)N2CCN(C)CC2)cc1` (centres undefined), the “growth rescue (activation)” value was inactive: -53.5%.
With `CCOC(=O)c1c(NC(=O)COc2ccc(OC)cc2)sc(C(=O)N(CC)CC)c1C` the figure was inactive: 17.2%; with `CC(=O)Nc1ccc(S(=O)(=O)N2CCC(C(=O)c3ccc(F)cc3)CC2)cc1`, inactive: 18.7%; with `O=C(Nc1ccccc1C(F)(F)F)c1ncn[nH]1`, inactive: 4.21%.
Consider `O=C(Nc1nc(-c2cc(F)ccc2F)cs1)C1=NN(c2ccccc2)C(=O)CC1`, for which the “growth rescue (activation)” value was inactive: 3.02%.
With `O=[N+]([O-])c1cccc(/C=N/n2c(C3CCCCC3)n[nH]c2=S)c1`, the “growth rescue (activation)” value is inactive: 11.1%.
The figure for `Cc1c(NC(=O)CSc2ccccc2Cl)c(=O)n(-c2ccccc2)n1C` is inactive: 3.5%; for `COCC(=O)Nc1ccc([N+](=O)[O-])cc1C` it is inactive: 21.6%.
`Cc1ccc(C(c2c(C)n(C)n(-c3ccccc3)c2=O)c2c(C)n(C)n(-c3ccccc3)c2=O)s1`: the “growth rescue (activation)” value is inactive: 2.89%.
The figure for `COCCOC(=O)C1=C(C)NC(=S)NC1/C=C/c1ccccc1` (centres undefined) is inactive: 4.57%.
With `FC(F)(F)c1ccccc1-n1c(CN2CCCCC2)n[nH]c1=S` the figure was inactive: -9.89%.
Take `CN(C)c1ccc(NC(=S)c2ccccn2)cc1`: the “growth rescue (activation)” value is inactive: 17.5%.
On to `COc1ccc(NC(=O)CSc2nc3sc(C)cc3c(=O)n2C)cc1`, for which the “growth rescue (activation)” value was inactive: 2.21%.
The figure for `O=C(Nc1ncc(Cc2cccc(Cl)c2)s1)c1ccc([N+](=O)[O-])cc1` is inactive: -15.9%.
